Measurements taken from paper PMC4336329 (PLoS ONE, 2015).
The whole screen tested about 310,000 compounds, of which about 2,200 (0.71%) showed an effect of 50% or more. The effect is printed as a negative number. Some of the results follow.

Biological target: human ether-à-go-go-related gene (hERG) potassium channel (human, UniProt Q12809)
Test: primary screen, population patch clamp on CHO cells stably expressing hERG

Sequence of human ether-à-go-go-related gene (hERG) potassium channel (Q12809 whole entry, looked up): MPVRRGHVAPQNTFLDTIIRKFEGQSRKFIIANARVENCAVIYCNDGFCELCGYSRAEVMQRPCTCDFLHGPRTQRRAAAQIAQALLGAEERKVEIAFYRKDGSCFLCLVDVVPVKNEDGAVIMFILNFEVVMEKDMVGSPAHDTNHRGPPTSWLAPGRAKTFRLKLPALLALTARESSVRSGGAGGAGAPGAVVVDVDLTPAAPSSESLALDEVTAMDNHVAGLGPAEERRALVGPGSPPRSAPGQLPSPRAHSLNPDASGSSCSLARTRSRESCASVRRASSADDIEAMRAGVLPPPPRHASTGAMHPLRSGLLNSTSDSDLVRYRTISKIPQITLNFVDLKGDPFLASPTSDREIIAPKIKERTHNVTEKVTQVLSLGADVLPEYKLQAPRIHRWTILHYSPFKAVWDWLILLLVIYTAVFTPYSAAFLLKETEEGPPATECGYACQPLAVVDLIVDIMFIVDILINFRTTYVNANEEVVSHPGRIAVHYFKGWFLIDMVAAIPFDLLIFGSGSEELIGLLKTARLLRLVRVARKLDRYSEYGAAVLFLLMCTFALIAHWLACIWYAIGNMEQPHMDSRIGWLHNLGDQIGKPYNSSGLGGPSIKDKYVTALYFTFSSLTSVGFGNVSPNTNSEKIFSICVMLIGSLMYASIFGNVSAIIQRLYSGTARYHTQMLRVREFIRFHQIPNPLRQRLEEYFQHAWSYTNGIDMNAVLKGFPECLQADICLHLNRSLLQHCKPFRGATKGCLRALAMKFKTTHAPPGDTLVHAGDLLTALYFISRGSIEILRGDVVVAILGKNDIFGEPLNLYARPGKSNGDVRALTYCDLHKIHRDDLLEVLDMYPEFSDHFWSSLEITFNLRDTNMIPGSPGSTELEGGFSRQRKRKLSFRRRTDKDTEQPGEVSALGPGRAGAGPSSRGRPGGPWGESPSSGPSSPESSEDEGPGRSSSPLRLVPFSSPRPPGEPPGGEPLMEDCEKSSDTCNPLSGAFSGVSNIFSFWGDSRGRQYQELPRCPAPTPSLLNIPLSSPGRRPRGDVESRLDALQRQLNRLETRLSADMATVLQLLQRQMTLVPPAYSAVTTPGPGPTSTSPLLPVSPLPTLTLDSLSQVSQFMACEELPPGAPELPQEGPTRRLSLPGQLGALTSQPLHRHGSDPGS

Row | SMILES | hERG current change (%, negative = inhibition) at 1uM [%]
1 | COc1cccc(OCC(O)CN2CCN(c3ccc(F)cc3)CC2)c1.Cl (centres unmarked) | -17.1
2 | CC(=O)c1cn(CC(=O)Nc2ccc(C)c(C)c2)c2ccccc12 | 17.8
3 | CCOc1ccc(CN(C)CC(=O)Nc2cccc(C)c2)cc1OC | -28.1
4 | COc1ccc(C)cc1S(=O)(=O)N1CCCC(C(=O)NC2CC2)C1 (centres unmarked) | 5.12
5 | CC1(C)CCCN(Cc2c(O)ccc3c(=O)c(-c4nc5ccccc5s4)c(N)oc23)C1 | 15.4
6 | O=C(N/N=C/c1cnc(N2CCCCC2)s1)c1ccc(C(F)(F)F)cc1 | 17.3
7 | CC1CC(C)CN(C(=O)c2ccc(-c3ccc([N+](=O)[O-])cc3)o2)C1 (centres unmarked) | -31
8 | O=[N+]([O-])c1cc([N+](=O)[O-])c2cc(-c3cccnc3)[nH]c2c1 | 16
9 | CCOC(=O)c1c(C)[nH]c(C(=O)C(C)OC(=O)c2cccc(OCc3c(C)noc3C)c2)c1C (centres unmarked) | 4.47
10 | Cc1ccc(CCNC(=O)Cn2cccc2)cc1 | -5.29
11 | CCOC(=O)CSc1cc(CS(=O)(=O)c2ccccc2)nc(-c2ccccc2)n1 | 8.36
12 | COCCNC(=S)NC1CC2CCC(C1)N2Cc1ccccc1 (centres unmarked) | 7.05
13 | O=[N+]([O-])c1ccc(/C=N/Nc2ccccn2)cc1 | 12.1
14 | CCOc1cccc2c1OC1(C)CC2NC(=O)N1c1ccc(OC)cc1 (centres unmarked) | 4.54
15 | O=C(Cn1cccc1)Nc1ccc(OC(F)(F)F)cc1 | 0.665
16 | COc1cc(Cl)c(NS(=O)(=O)c2c(C(=O)N3CCCC3)c(C)n(C)c2C)c(OC)c1 | 10.3
17 | O=C(Nc1cccc(F)c1)c1coc(=O)c(Br)c1 | 3.45
18 | O=C(Nc1ccccc1N1CCOCC1)c1cccc2c(Br)cccc12 | 18.9
19 | COc1ccc2[nH]c(C(=O)NCCN3CCOCC3)cc2c1 | 14.5
20 | C=CCOc1ccc(CNCCc2ccc(S(N)(=O)=O)cc2)cc1.Cl | -34
21 | O=C(COc1ccc2ccccc2c1)NNC(=O)c1ccccc1 | 16.8
22 | O=C(CCl)N1CCN(S(=O)(=O)Cc2ccccc2)CC1 | 6.47
23 | Cc1ccc(O)c(NC(=S)NC(=O)C(C)C)c1 | 6.12

Row | SMILES | hERG current change (%, negative = inhibition) at 1uM [%]
24 | CCC(c1nnnn1Cc1ccco1)N1CCN(c2cc(Cl)ccc2C)CC1.Cl (centres unmarked) | 10.7
25 | Cc1cc(C(=O)NCCc2ccccc2)c2cc(F)ccc2n1 | 9.22
26 | O=C(COC(=O)CNC(=O)c1ccco1)Nc1ncc(Cl)cc1Cl | 13.9
27 | COc1ccc(NC(=O)NC(=O)c2ccccc2)cc1 | 12.5
28 | Cc1cc(NS(=O)(=O)c2ccc(NC(=O)c3cccc(OC(F)F)c3)cc2)nc(C)n1 | 10.7
29 | COc1ccc(NC(=O)CN(C)C(=O)c2cccc(S(=O)(=O)N3CCN(Cc4ccccc4)CC3)c2)cc1 | 1.95
30 | COc1ccc(S(=O)(=O)c2nnn(-c3ccccc3Cl)c2N)cc1 | -1.14
31 | Cc1cccc(N2CCN(C(=O)Cc3ccccc3[N+](=O)[O-])CC2)c1C | 9.77
32 | N#C/C(=C\c1ccccc1C(F)(F)F)C(=O)Nc1ccccc1 | 0.849
33 | Cc1ccccc1NC(=O)NNC(=O)OC(C)(C)C | -0.145
34 | CC(NC(=O)CCc1nnc(C2CCCCC2)o1)c1ccc(F)cc1 (centres unmarked) | 8.55
35 | CCOC(=O)/C=C/COc1ccccc1[N+](=O)[O-] | 6.93
36 | CC(=O)c1cccc(N2C(=O)C3C(C(=O)Nc4cc(C)on4)C4(C)C=CC3(O4)C2C(=O)NC(C)(C)C)c1 (centres unmarked) | 11.4
37 | COc1ccc(S(=O)(=O)NNC(=O)Nc2ccc(C)cc2)c(OC)c1 | 7.16
38 | COc1ccc(CCNc2nc(-c3ccc(O)cc3)cs2)cc1OC | 7.6
39 | Cc1cc(C)n(-c2ccc(C(=O)OCc3nnc(-c4ccccc4)o3)cc2)n1 | 11.1
40 | O=C(NCc1ccncc1)C1COc2ccccc2O1 (centres unmarked) | -5.57
41 | O=C(Cc1ccc(F)cc1)Nc1nnc(-c2ccc(F)cc2)o1 | 9
42 | COC(=O)CCN(C(=O)c1cccc([N+](=O)[O-])c1)c1ccccn1 | 5.49
43 | COc1ccc(S(=O)(=O)NCC2CCCO2)cc1NC(=O)c1ccc(Cl)cc1 (centres unmarked) | -6.75
44 | CCOC(=O)CN(c1cc([N+](=O)[O-])ccc1OC)S(C)(=O)=O | 23.9
45 | CCN(CC)CCNc1nc(-c2cccs2)c(CC(=O)O)s1.O=C(O)C(=O)O | 2.43
46 | COCCN(CC(=O)Nc1cc(Cl)ccc1-n1cncn1)Cc1nc2ccccc2c(=O)[nH]1 | -12

Row | SMILES | hERG current change (%, negative = inhibition) at 1uM [%]
47 | COc1ccc(C)cc1N(CC(=O)N1CCOCC1)S(C)(=O)=O | 15.9
48 | CC(/C=C/c1ccco1)=N\NC(=O)COc1ccc(C)c(C)c1 | -3.38
49 | CCOC(=O)C1CCN(S(=O)(=O)c2ccc3c(c2)CC(=O)N3)CC1 | -1.04
50 | COCc1nnc(SCC(=O)NCc2ccccc2)n1-c1ccccc1 | 3.79
51 | COc1cccc(CNC(=O)CSc2ccc(-c3ccco3)nn2)c1 | 8.75
52 | [O-]/C(=C(\C(=S)NCCN1CCOCC1)[n+]1ccccc1)c1ccc(Cl)s1 | 10.4
53 | NS(=O)(=O)c1ccc(-n2nc(C(=O)O)cc2-c2ccc(Cl)cc2)cc1 | 14.9
54 | COc1ccc(C)cc1N(CC(=O)N/N=C/c1ccccc1C(=O)O)S(=O)(=O)c1ccccc1 | 21.4
55 | O=C1N(c2ccc(Cl)cc2)C(c2ccccc2)N2CCCN12 (centres unmarked) | 22.3
56 | Cc1cc(CSc2ccccc2)ccc1NC(=O)c1cccc([N+](=O)[O-])c1 | 6.04
57 | COc1ccc(CNC(=O)c2ccc3c(=O)n(CCCN4CCCC4=O)c(=S)[nH]c3c2)cc1 | 14.7
58 | Cc1ccccc1Cn1cccc1/C=C1/C(=N)N2C=CSC2=NC1=O | 16.6
59 | COc1ccc(N2CCN(CC(=O)NCc3ccccc3)CC2)cc1 | 7.53
60 | CC(=O)Nc1ccc(C(=O)COC(=O)CCS(=O)(=O)c2ccccc2)cc1 | 16.8
61 | Cc1ccc(C(=O)NCC(=O)OCC(=O)NCCc2ccccc2)s1 | 14.6
62 | CCCOc1ccc(CNC(=O)Cn2c(=O)oc3ccccc32)cc1 | 6.29
63 | CC(C)CC(OC(=O)c1ccco1)C(=O)NC1CCCC1 (centres unmarked) | 5.05
64 | N#Cc1c(-n2cccc2)cccc1-n1cccc1 | 11.5
65 | CCOC(CNC(=O)C(=O)Nc1cc2c3c(c1)CCC(=O)N3CCC2)OCC | 12.2
66 | Cc1cc(NC(=O)C2CC(=O)N(c3cccc(Cl)c3)C2)no1 (centres unmarked) | -2.74
67 | O=C(CCN1C(=O)/C(=C/c2ccc(F)cc2)SC1=S)NCCCn1ccnc1 | -18.5
68 | COc1cc(/C=N/n2c(C)n[nH]c2=S)ccc1OCc1ccccc1 | 10.3
69 | CC1CC(C)CN(C(=O)C2CCC(CNc3c(N4CCCCC4)c(=O)c3=O)CC2)C1 (centres unmarked) | 12.9

Row | SMILES | hERG current change (%, negative = inhibition) at 1uM [%]
70 | COc1ccc(N(C)S(=O)(=O)c2c(C)noc2C)c(OC)c1 | 13.9
71 | Cc1nc(-c2nc(-c3c(C(=O)NNC(=O)c4ccc(Cl)cc4)noc3C)cs2)cs1 | 30.7
72 | CCN1/C(=C2\OC(=S)N(C)C2=O)Sc2ccccc21 | 6.51
73 | COc1ccccc1/C=C/C(=O)OCC(=O)NCc1ccco1 | 6.72
74 | O=C(Nn1cnc2ccccc2c1=O)c1c(F)cccc1F | 24.8
75 | CC1(C)CC(=O)C2=C(C1)N(c1cccnc1)C(N)=C(C#N)C2c1cccs1 (centres unmarked) | 14.9
76 | COc1cccc2c(=O)n(CC(=O)N3CCC(C)CC3)ccc12 | 1.7
77 | CCOC(=O)C1(CCCc2ccccc2)CCN(Cc2cnc(C)s2)CC1 | -44.7
78 | Cc1ccc(C)c(-n2cc(CNCCCn3cccn3)c(-c3ccccc3)n2)c1 | -20.1
79 | CCOC(=O)c1cc2c(=O)[nH]ccc2nc1C | 10.5
80 | O=C(NNC(=O)c1ccccc1F)c1ccc(-c2ccc(Cl)cc2)o1 | 2.14
81 | Cn1c(CNC2CCCCC2)c(C#N)c2ccccc21 | 5.23
82 | CCCS(=O)(=O)c1c(S(=O)(=O)CCC)c2cnccn2c1C(=O)c1ccc(F)cc1 | 3.95
83 | CN1CCN(S(=O)(=O)c2ccc(Br)c3ccccc23)CC1 | 8.08
84 | CCOC(=O)CNC(=O)C1Cc2ccccc2CN1S(=O)(=O)c1cccs1 (centres unmarked) | 3.82
85 | Cc1[nH]c2ccccc2c1/C=N\NC(=O)CNc1ccc2c(c1)OCO2 | 13.2
86 | CC(C)N(Cc1cnn(C)c1)Cc1nc(COc2ccccc2)no1 | 6.72
87 | O=C(c1ccccc1)N1CCN(CC(O)COc2ccc(Br)cc2)CC1 (centres unmarked) | -46.3
88 | N#Cc1c(Nc2ccccc2)s[nH]c1=O | 6.43
89 | O=S(=O)(c1ccc(SCCOc2ccccc2)nc1)N1CCCC1 | 3.52
